# The other results are listed elsewhere or left out.
# Test system: HSkMC (human skeletal muscle cells)
# Experiment: cytotoxicity call (relative viability < 0.9)
# Conditions: 10 µM
row,Compound,cytotoxicity call
1,COc1ccc(NC(=O)N(C)C[C@@H]2OCCCC[C@@H](C)Oc3ccc(NC(=O)c4ccncc4)cc3C(=O)N([C@@H](C)CO)C[C@H]2C)cc1,inactive
2,C[C@H](CO)N1C[C@H](C)[C@@H](CN(C)S(C)(=O)=O)Oc2ccc(NC(=O)Nc3ccc(F)cc3)cc2C1=O,inactive
3,C[C@@H]1CN([C@@H](C)CO)C(=O)c2cc(NS(=O)(=O)c3cccs3)ccc2O[C@H]1CN(C)S(C)(=O)=O,inactive
4,O=C(O)[C@H]1C2C(=O)N(C3CC3)C[C@]23C=C[C@H]1O3 (stereo not given in full),inactive
5,COc1ccc2c3c([nH]c2c1)[C@@H](CO)N(C[C@]13CN(C1)S(=O)(=O)C)C(=O)c1cnccn1,inactive
6,C[C@H](CO)N1C[C@H](C)[C@@H](CN(C)C(=O)C2CCCCC2)Oc2cc(C#CCN(C)C)ccc2S1(=O)=O,inactive
7,CC(C)NC(=O)Nc1cccc2c1O[C@H](CN(C)S(=O)(=O)c1ccc(F)cc1)[C@H](C)CN([C@@H](C)CO)C2=O,inactive
8,COCCOC(=O)N1C(=O)[C@@]2(c3cc(C#CC4(O)CCCCCC4)ccc31)[C@H](C(=O)NC[C@H](O)c1ccccc1)[C@H]1C(=O)O[C@H](c3ccccc3)[C@H](c3ccccc3)N1[C@@H]2c1ccc(OCCO)cc1,inactive
9,NC(=O)c1cnccn1,inactive
10,Cc1ccc2nc(-c3ccco3)[nH]c2c1,inactive
11,CC(C)NC(=O)N(C)C[C@@H]1OCCCC[C@H](C)Oc2ccc(NS(C)(=O)=O)cc2C(=O)N([C@@H](C)CO)C[C@@H]1C,inactive
12,CCOC(=O)CNC(=O)c1cnn2cccnc12,inactive
13,Cc1ccc(S(=O)(=O)N(C)C[C@H]2OCCCC[C@@H](C)Oc3ccc(NC(=O)C4CCCCC4)cc3C(=O)N([C@H](C)CO)C[C@H]2C)cc1,inactive
14,C[C@H](CO)N1C[C@H](C)[C@@H](CN(C)S(=O)(=O)c2ccccc2)Oc2ccc(NC(=O)C3CC3)cc2C1=O,inactive
15,O=C(O)CCc1nc2ccccc2[nH]c1=O,inactive
16,CCOC(=O)CCC(=O)OC1C(OC2C(C)C(OC3CC(C)(OC)C(O)C(C)O3)C(C)C(=O)OC(CC)C(C)(O)C(O)C(C)C(=O)C(C)CC2(C)O)OC(C)CC1N(C)C (stereo not given),inactive
17,C[C@H](CO)N1C[C@H](C)[C@@H](CN(C)C(=O)Nc2ccc(C(F)(F)F)cc2)Oc2ccc(NC(=O)Nc3ccc(C(F)(F)F)cc3)cc2CC1=O,inactive
18,COc1ccc(S(=O)(=O)N(C)C[C@@H]2Oc3c(NC(=O)c4cc(C)nn4C)cccc3C(=O)N([C@@H](C)CO)C[C@H]2C)cc1,inactive
19,C[C@H](CO)N1C[C@H](C)[C@@H](CN(C)Cc2ccccc2)OCCCC[C@H](C)Oc2ccc(NS(=O)(=O)c3cccs3)cc2C1=O,inactive
20,Cc1noc(C)c1NC(=O)N(C)C[C@@H]1Oc2c(NS(=O)(=O)c3c(C)noc3C)cccc2C(=O)N([C@@H](C)CO)C[C@@H]1C,inactive

row,Compound,cytotoxicity call
1,Cc1noc(C)c1NC(=O)Nc1ccc2c(c1)C(=O)N([C@@H](C)CO)C[C@H](C)[C@@H](CN(C)Cc1ccc(C(=O)O)cc1)OCCCC[C@H](C)O2,inactive
2,C[C@H](CO)N1C[C@H](C)[C@@H](CN(C)C(=O)Nc2cccc3ccccc23)OCCCC[C@H](C)Oc2ccc(NC(=O)Nc3cccc4ccccc34)cc2C1=O,inactive
3,C[C@H](CO)N1C[C@H](C)[C@@H](CN(C)C)Oc2ccc(NS(=O)(=O)c3cn(C)cn3)cc2CC1=O,inactive
4,C[C@@H]1CCCCO[C@H](CN(C)C(=O)Nc2ccc3c(c2)OCO3)[C@H](C)CN([C@H](C)CO)C(=O)c2cc(NC(=O)Nc3ccc(C(F)(F)F)cc3)ccc2O1,inactive
5,CCC(C)CCCCC(=O)NC(CCN)C(=O)NC(C(=O)NC(CCN)C(=O)NC1CCNC(=O)C(C(C)O)NC(=O)C(CCN)NC(=O)C(CCN)NC(=O)C(CC(C)C)NC(=O)C(Cc2ccccc2)NC(=O)C(CCN)NC1=O)C(C)O.O=S(=O)(O)O (stereo not given),inactive
6,Cc1cccc(S(=O)(=O)N2C[C@H](O)COC[C@@H]3O[C@@H](CC(=O)NCc4ccncn4)CC[C@H]32)c1,inactive
7,O=c1[nH]c2ccccc2c(=O)n1CCCO,inactive
8,COC(=O)Cc1c(C)[nH]c2ncnn2c1=O,inactive
9,Cc1cc(C(=O)Nc2cccc3c2O[C@H](CN(C)Cc2ccc(Oc4ccccc4)cc2)[C@@H](C)CN([C@@H](C)CO)C3=O)n(C)n1,inactive
10,Cc1cc(C)c(C#N)c(=O)[nH]1,inactive
11,C[C@@H]1CCCCO[C@@H](CN(C)S(C)(=O)=O)[C@@H](C)CN([C@H](C)CO)C(=O)c2cc(NC(=O)CCCN(C)C)ccc2O1,inactive
12,Cc1cc(C(=O)Nc2cccc3c2O[C@H](CN(C)C(=O)Nc2ccc4c(c2)OCO4)[C@H](C)CN([C@@H](C)CO)C3=O)n(C)n1,inactive
13,COc1cccc(NC(=O)N(C)C[C@@H]2Oc3ncc(C#Cc4ccncc4)cc3C(=O)N([C@H](C)CO)C[C@@H]2C)c1,inactive
14,CCCN(C)C[C@@H]1OCCCC[C@@H](C)Oc2ccc(NC(=O)C3CCCCC3)cc2C(=O)N([C@@H](C)CO)C[C@@H]1C,inactive
15,C[C@@H]1CCCCO[C@H](CN(C)C(=O)c2ccccc2)[C@@H](C)CN([C@@H](C)CO)C(=O)c2cc(NC(=O)Cc3ccccc3)ccc2O1,inactive
16,C[C@@H]1CN([C@@H](C)CO)C(=O)c2cc(NC(=O)Cn3cnnn3)ccc2O[C@H]1CN(C)Cc1ccc(C(F)(F)F)cc1,inactive
17,CC(=O)O[C@H](C)[C@H]1[C@@](C)(O)CC(=O)[C@]23O[C@]12C(=O)c1ccc(-c2ccc4c(c2O)[C@@H](O)[C@@]25O[C@]2(C4=O)[C@@H]([C@@H](C)OC(C)=O)[C@@](C)(O)CC5=O)c(O)c1[C@H]3O,inactive
18,C[C@@H](O)c1cccc(C(F)(F)F)c1,inactive
19,O=C(C[C@H]1CC[C@@H]2[C@H](COC[C@@H](O)CN2S(=O)(=O)c2cccc(F)c2)O1)NCCCN1CCOCC1,inactive
20,CCCNC(=O)C[C@H]1CC[C@H]2[C@@H](COc3ccc(NC(=O)c4ccc5c(c4)OCO5)cc3C(=O)N2C)O1,inactive
